From the RNAGym collection of RNA variant scans (doi:10.7554/elife.90254) come the findings set out here.

First the molecules themselves.
B1: LINE1-mini (parent)
chain: GGCAGAGCUCAACACAGCGUGGCAAAGUGGCUGUGGCUAGACUGCC

The source gives no read counts; variants with many changes may rest on few reads.

Variants of B1 are the subject of the data set. Put plainly: self-cleavage, relative activity (ratio to wild type); higher = more cleavage; in vitro, sequencing; the parent is a self-cleaving ribozyme.
As for C8U G17U G30A C46A, the self-cleavage turned out to be 0.23.

As to C8G C10A A26U, the self-cleavage came to 0.

As to C8G C18A A24U A41C C46A, the self-cleavage came out at 0.11.

For the variant C8U C23U A25C, the self-cleavage came to 0.05.

Regarding C8G G21U G29U U34G C46U, the self-cleavage was found to be 0.01.

Turning to C8G U20C C23U C31G G33A G44C, the self-cleavage is 0.07.

For the variant C8G C10A A14C G30A U38C, the self-cleavage is 0.01.

Regarding C8U C23G U34A, the self-cleavage is 0.03.

As for U9A A11G C18A U20A G29C, the self-cleavage worked out at 0.03.

As for C8G A39C G40A, the self-cleavage stood at 0.06.

In the case of C8U U20C C42U, the self-cleavage amounted to 0.1.

Regarding C8G U28A G36A, the self-cleavage is 0.19.

Take C8U C23U G27U C42A: the self-cleavage amounted to 0.05.

C8U A12C C23A C46U: the self-cleavage is 0.02.

With C8U C13U A14U G19U U20G G21C C45G, the self-cleavage stood at 0.19.

Consider U9A A12G A39U, for which the self-cleavage came out at 0.03.

On to C8U C23G G30C G35C A39G G40A, for which the self-cleavage was 0.08.

As to C8U A26U U34C C46U, the self-cleavage is 0.58.

Regarding C8G C15G G21C A41U, the self-cleavage turned out to be 0.04.

Consider C8G G29A A41G, for which the self-cleavage worked out at 0.02.

Consider C8U C37A A39U, for which the self-cleavage turned out to be 0.01.

Consider C8G C10A G17U G19C G36C C45U, for which the self-cleavage amounted to 0.02.

Take C8U C15U A25G C31A G36C U43A: the self-cleavage worked out at 0.07.

On to C8U C10A G36A, for which the self-cleavage is 0.04.

On to C8G G29U U32C C42U, for which the self-cleavage came out at 0.03.

As for C8U G21A C23G G40C, the self-cleavage was determined as 0.15.

Turning to C8U G40C G44A, the self-cleavage worked out at 0.14.

Turning to C8G U28C C45U C46U, the self-cleavage is 0.01.

Take C8U C13G A39U: the self-cleavage is 0.05.

With C8U C37U C45A, the self-cleavage came to 0.09.

With C8U C13U G19A C23A, the self-cleavage came to 0.67.

With C8G C13A U34A, the self-cleavage amounted to 0.14.

Take C8U A14U G17C: the self-cleavage was 0.3.

With C8U C10A G22A G44A C46A, the self-cleavage was determined as 0.

Regarding C8G C13U G40U, the self-cleavage turned out to be 0.02.

Consider C8G C13U G40A, for which the self-cleavage turned out to be 0.02.

C8G C18A C23G G29A: the self-cleavage is 0.03.

As for C8U A16G A41U, the self-cleavage was 0.61.

As to C8U G19C G27U C46U, the self-cleavage was determined as 0.35.

Regarding U9A A11C A14C, the self-cleavage is 0.04.

On to C8G G30A U34C G35U, for which the self-cleavage was found to be 0.08.

In the case of C8G C18A A24U C37U A41G, the self-cleavage came to 0.02.

As for C8U G17C C23U, the self-cleavage was determined as 0.17.

With C8U U9G A11U G27A U28G A41C, the self-cleavage is 0.01.

As to C8U A14G G35U, the self-cleavage was 0.09.

As to C8U G30A U38A, the self-cleavage was determined as 0.07.

For U9A A14C G21C, the self-cleavage stood at 0.02.

Take C8U G27A G35A: the self-cleavage is 0.22.

Turning to C8U C15A U20G U43A, the self-cleavage is 0.08.

With C8G C15U G17A C45G, the self-cleavage was 0.11.

For C8U A16G G29U U32A G40A, the self-cleavage came out at 0.05.

For the variant C8G C23U G36A C46A, the self-cleavage turned out to be 0.06.

Turning to C8G C18U C23G G30C C45G, the self-cleavage was 0.02.

In the case of C8U U38G C42U, the self-cleavage turned out to be 0.05.

With C8U G29U G40C C42U, the self-cleavage was found to be 0.05.

For the variant C8G C15A U28G U38G G44A C45A, the self-cleavage was 0.06.

On to C8G C13G A14U U28G G35A, for which the self-cleavage was 0.14.

In the case of C8G C10U G35A, the self-cleavage was found to be 0.06.

For C8G C10G A12G G27C, the self-cleavage was 0.01.

Consider C8U A12C G21A, for which the self-cleavage is 0.05.

Consider C8G G27U G29A, for which the self-cleavage was determined as 0.03.

In the case of C8G G35U A41C, the self-cleavage was determined as 0.06.

Turning to C8U A11U C45G, the self-cleavage came out at 0.02.

As for C8U A11G C18A U20A C23A, the self-cleavage amounted to 0.02.

As for C8U A26U C42A, the self-cleavage is 0.07.

Turning to C8U G35U C42G, the self-cleavage came to 0.02.

In the case of U9A A12U A16U, the self-cleavage was 0.05.

Regarding C8U A25C C37A U38C, the self-cleavage is 0.43.

As for C8G G21U A41G, the self-cleavage stood at 0.05.

As for C8U U32A G36A U38A, the self-cleavage came to 0.06.

With C8G C15A G22C, the self-cleavage was 0.03.

With C8U C13A G36A, the self-cleavage worked out at 0.83.

Regarding C8G A26U G30C A39G U43C, the self-cleavage was determined as 0.01.

As for C8G G27U C31A U43A, the self-cleavage came out at 0.05.

Take C8G C18A G29A U32G: the self-cleavage stood at 0.03.

As for C8G C13G C15U G29A C31A, the self-cleavage worked out at 0.1.

Take C8G C10G C13U U34G: the self-cleavage turned out to be 0.03.

On to C8G G30U U38A C46U, for which the self-cleavage came out at 0.06.

For C8G G19C C23U U28G G33U G40A C46U, the self-cleavage came out at 0.01.

Turning to C8U A11U A12G G27U U38C, the self-cleavage turned out to be 0.01.

Regarding C8G G21C U28C U32C, the self-cleavage turned out to be 0.03.

Turning to C8U G27C U28G, the self-cleavage amounted to 0.06.

For the variant C8U A16C G19C G33U A41G, the self-cleavage came to 0.04.

Take C8G G17U C23A: the self-cleavage came to 0.01.

Turning to C8U A16U G21U, the self-cleavage is 0.03.

For the variant C8U C10A A11U, the self-cleavage worked out at 0.03.

With C8U G27U G33A, the self-cleavage was determined as 0.35.

Turning to C8G G40C A41C C46G, the self-cleavage amounted to 0.01.

With C8U C18A C23G, the self-cleavage came out at 0.33.

C8U G17C G21A A25U C45G: the self-cleavage is 0.01.

C8G G21U G35A C45U: the self-cleavage worked out at 0.06.

C8G C13G G19A G21U C23A: the self-cleavage is 0.01.

For the variant C8G A41G C42A, the self-cleavage was determined as 0.14.

In the case of C8U A24U C31U, the self-cleavage stood at 0.07.

As for C8G C15U A16G G21U G44A, the self-cleavage is 0.05.

As to C8G C13A C15A, the self-cleavage was found to be 0.13.

For the variant C8U C15A U34C, the self-cleavage stood at 0.03.

In the case of C8G G21U G35A G44C, the self-cleavage was 0.03.

As for C8U A16U G19C A24U G29C G35C, the self-cleavage was 0.

Regarding C8U C10U C31U U43A, the self-cleavage was 0.03.

Turning to C8U A14U G22A G30U, the self-cleavage stood at 0.24.

On to C8G U9G A14C A16C A39C A41U, for which the self-cleavage was 0.01.

For the variant C8G C23A A24C, the self-cleavage stood at 0.12.

Take C8G G33A A41C: the self-cleavage is 0.08.

Regarding C8G C10G C15U U20A G22C A24U, the self-cleavage is 0.01.

In the case of C8U A11U U38A A41G, the self-cleavage is 0.02.

With U9A A14C C18A C31G, the self-cleavage amounted to 0.

In the case of C8G G19A U43A, the self-cleavage stood at 0.01.

In the case of C8G C13A A25U, the self-cleavage was 0.

As to C8U U9A A11C A16U, the self-cleavage was 0.02.

As to C8U G17C U20C G29U, the self-cleavage is 0.09.

For C8G C42G G44C, the self-cleavage is 0.03.

Turning to C8U C23G U34A C46A, the self-cleavage turned out to be 0.11.

Regarding C8U U38C U43G, the self-cleavage is 0.05.

For C8G C10U G17U U43A, the self-cleavage was found to be 0.08.

As to C8U C31U G40U, the self-cleavage came out at 0.19.

C8U C13U G29C: the self-cleavage was 0.07.

For C8U C10U A12G G35U G36C, the self-cleavage amounted to 0.02.

With C8G U9A G22U C37G, the self-cleavage stood at 0.04.

For the variant C8G C13A G17U U20A G35A C46U, the self-cleavage was 0.06.

As for C8U A11G A39U A41C, the self-cleavage turned out to be 0.01.

For the variant C8U A14G A16C U32G, the self-cleavage was found to be 0.

Regarding C8G C13U U43C, the self-cleavage came out at 0.05.

C8U A25U G40A: the self-cleavage was found to be 0.2.

With C8G U9G A14C C31A G40A, the self-cleavage was 0.02.

As to C8U G27C C31A, the self-cleavage was 0.14.

Regarding C8G G36C A41C, the self-cleavage was 0.08.

As for C8U G30C U32A C46A, the self-cleavage is 0.16.

Take C8G C10U A25C A26U: the self-cleavage came out at 0.04.

As to C8G G19U G22U G36C, the self-cleavage is 0.07.

For the variant C8U U28G G35A U43C, the self-cleavage worked out at 0.93.

Take C8G C10A U34G C37U G44A: the self-cleavage was 0.

Regarding C8U C18A G19C, the self-cleavage came out at 0.19.

As to C8G C13A U28G C31A U34G, the self-cleavage came to 0.01.

Consider C8G U20C U28C, for which the self-cleavage came out at 0.02.

Regarding C8U A24U G36A, the self-cleavage came out at 0.94.

As for C8G G17A U28G, the self-cleavage came out at 0.06.

Regarding C8U A12U G22C C31A G40A, the self-cleavage was determined as 0.02.

In the case of C8G G19C A24U, the self-cleavage was determined as 0.01.

As for C8U A12U A14G, the self-cleavage stood at 0.18.

Turning to C8G C15G U28A U32C A39U G40U G44A, the self-cleavage came to 0.06.

For C8G U20A C37U, the self-cleavage was 0.03.

For the variant C8U C18U A39G, the self-cleavage stood at 0.02.

As to C8G C13U G21C G27U U32A G35A, the self-cleavage is 0.05.

On to C8U A24G U28C G30A, for which the self-cleavage was 0.02.

Regarding C8G U9C G19U C46U, the self-cleavage came to 0.02.

Regarding C8U A24U G27C A39C, the self-cleavage is 0.08.

On to C8G C15A G21A A24U A39U C45U, for which the self-cleavage was determined as 0.08.

On to C8G C10U C15U, for which the self-cleavage was determined as 0.05.

With C8U U32C G35U, the self-cleavage was determined as 0.08.

In the case of C8U U32C G35A, the self-cleavage is 0.26.

Turning to C8G C13A G17C G35A C37A, the self-cleavage was found to be 0.01.

As to C8U C13U A24C G44U C46A, the self-cleavage stood at 0.04.

For the variant U9A A12U C23U C37U, the self-cleavage was 0.01.

Regarding C8U G17A G19U G21U, the self-cleavage is 0.03.

U9A A12C A24G: the self-cleavage came to 0.03.

On to C8U C31U G33U U38A, for which the self-cleavage came out at 0.1.

Consider C8U C10G C42U, for which the self-cleavage worked out at 0.02.

Consider C8U A26U U34A, for which the self-cleavage is 0.06.

On to C8G G40A U43G, for which the self-cleavage was 0.

Regarding C8U G29C C45U C46A, the self-cleavage was determined as 0.02.

For the variant C8U C10U A26U, the self-cleavage was 0.2.

In the case of C8G U32C A39U A41C, the self-cleavage came to 0.11.

With C8U U9G C15U C46U, the self-cleavage is 0.07.

As to C8G A25U A41C, the self-cleavage worked out at 0.12.

Regarding C8U C10A G19C G29C G40A, the self-cleavage is 0.01.

On to C8G A25U G40U, for which the self-cleavage stood at 0.08.
